# In all, about 33,000 sequences were measured (“E-score (-0.5 to 0.5)”: median about -0.032, highest 2% from about 0.36 on). The list shows a part of the results.
# Target: T1, Sko1 (UniProt Q02100)
# T1 sequence: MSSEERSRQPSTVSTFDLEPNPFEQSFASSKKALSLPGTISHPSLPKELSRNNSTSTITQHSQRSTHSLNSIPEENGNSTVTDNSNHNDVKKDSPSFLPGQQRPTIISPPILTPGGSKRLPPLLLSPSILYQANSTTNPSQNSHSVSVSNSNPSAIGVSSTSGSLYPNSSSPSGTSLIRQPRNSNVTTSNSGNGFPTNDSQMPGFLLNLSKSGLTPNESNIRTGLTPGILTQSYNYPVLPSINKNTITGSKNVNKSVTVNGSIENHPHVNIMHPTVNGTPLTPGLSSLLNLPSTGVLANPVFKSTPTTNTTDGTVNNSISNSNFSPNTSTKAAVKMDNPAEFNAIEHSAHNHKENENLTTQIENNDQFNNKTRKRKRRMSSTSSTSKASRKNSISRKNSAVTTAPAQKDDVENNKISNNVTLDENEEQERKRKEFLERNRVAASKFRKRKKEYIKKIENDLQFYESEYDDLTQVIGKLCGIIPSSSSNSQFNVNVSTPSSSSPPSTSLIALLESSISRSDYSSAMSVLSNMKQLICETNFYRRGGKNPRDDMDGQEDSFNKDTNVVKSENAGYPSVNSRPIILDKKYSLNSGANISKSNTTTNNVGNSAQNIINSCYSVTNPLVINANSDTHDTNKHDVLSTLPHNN
# Assay: PBM E-score (8-mer binding enrichment) (E-score (-0.5 to 0.5)); higher = stronger / more preferred TF binding; most listed sequences are background and not binding sites
# Details: protein concentration: 200 nM; construct: GST-full length
# Procedure, shortened: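 Detection of bound protein used fluorescent anti-GST, with scans normalised by masliner. The proteins were GST-tagged yeast transcription factors applied at about 100-200 nM to universal all-10-mer Agilent arrays made double-stranded by primer extension. Each ungapped eight-base word, pooled with its reverse complement, was scored with an E-score from the Universal PBM Analysis Suite.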
row,Sequence,PBM E-score
1,CGGACGAA,0.0658
2,ACGGGCCC,-0.224
3,ATTAAACC,0.0603
4,ATTCTTGG,-0.00065
5,AGACCCCT,-0.242
6,ATCAATGA,0.294
7,GGCCCACC,-0.243
8,CGATTCTC,-0.0652
9,ACGTACTA,0.426
10,GAGGGGAA,-0.0615
11,CCTACTCC,-0.16
12,GACCCGCA,-0.149
13,GCGCTCCA,-0.256
14,ATCCTCCG,-0.212
15,CTAGTAAC,-0.0053
16,GACAATAA,0.116
17,CGACACTC,-0.00392
18,ATCGTCGC,0.0155
19,CAGCGCGG,-0.158
20,CACCGGTG,-0.274
21,CGACGGAG,-0.197
22,ATTGATGG,0.146
23,GAAGGTCA,0.0225
24,CCGTTCAC,-0.191
25,CCTACGAA,0.0841

row,Sequence,PBM E-score
1,ACCTCCTC,-0.0403
2,CTTGTGTA,0.12
3,CCGAAAGA,-0.0515
4,CGCATCGC,-0.0224
5,GAATCTCC,-0.198
6,CCCTTCTC,-0.362
7,GTTTTCGA,0.111
8,CATTGGTC,-0.282
9,CACAAATC,0.0576
10,AACGAAAG,0.15
11,GGGGTGGA,-0.138
12,AAAGTTCC,-0.132
13,TCATGAAA,0.0769
14,GAGCCGGC,-0.243
15,AGTTTATG,0.0927
16,CAGTTCGG,-0.064
17,ATGTGTCG,0.0574
18,CACCTCTC,-0.0383
19,CTAAGATA,-0.023
20,CGTGAGCC,-0.0606
21,ATCAATTA,0.303
22,AGCAATAC,0.123
23,ACTTTCCG,-0.0709
24,AGGTGGCG,-0.0429
25,ACCTTGGG,-0.0151

row,Sequence,PBM E-score
1,TGTGTGAA,0.149
2,TCTACAAA,0.0537
3,AATGTAGT,0.0143
4,ACTTGAGA,0.132
5,AACATGTA,0.243
6,AATCTTAT,0.193
7,CAAGCTTG,-0.133
8,ATGCCCTG,-0.17
9,AGAGGAAT,-0.0119
10,CAGTTCTC,0.00085
11,GATGCGTA,0.272
12,AAACCCCC,-0.331
13,CTATCTCA,0.0341
14,AGACTTTC,-0.0806
15,ACATAATC,0.319
16,AGAGTATA,-0.0892
17,GAGTTCCC,-0.273
18,ATGAGCCG,-0.232
19,ACCTTCTG,-0.156
20,ACAGCGCC,-0.304
21,AAGACCTA,-0.109
22,CTCGGGTA,-0.272
23,ACAGGTCA,-0.104
24,AATACGGG,-0.111
25,CGCCCGTC,-0.172

row,Sequence,PBM E-score
1,GTGTACTA,0.171
2,GTCGGAAA,0.0588
3,GTAAGGTA,0.255
4,ATTCTACG,0.29
5,GCGCCGCC,-0.159
6,GGGGCTCA,-0.301
7,AAAAAGCG,0.0343
8,ACCGACAA,-0.113
9,GCTGTCGA,-0.121
10,CACTTACA,0.164
11,CCCTATCC,-0.24
12,AAAGAAAT,0.156
13,CACTGCTG,-0.162
14,CATTTGAG,0.112
15,ATTCCCCG,-0.237
16,CGGGACCA,-0.274
17,AATTTCAT,0.198
18,AAGTCCCA,-0.204
19,CAACAGTA,-0.0581
20,AATATTCA,0.15
21,AGTAGATC,-0.0965
22,CTGAGTGA,-0.0615
23,CAGTCAGA,-0.0878
24,CCGTATAA,0.0514
25,CCGGGGGC,-0.282

row,Sequence,PBM E-score
1,ACAGAGCT,-0.175
2,GACTATAC,0.0701
3,ACGTTTTA,0.364
4,TACCTTAA,-0.0124
5,ACAAATAG,0.14
6,CCCGTTTA,-0.145
7,CACCCCAA,0.0671
8,AAATCGTT,0.191
9,CCCTGCCA,-0.285
10,CCAGGCAG,-0.206
11,GGTATTGA,-0.00694
12,AATACACT,0.18
13,GCCTTTAC,0.118
14,GGTCTATA,0.109
15,AGTGCTTA,-0.0239
16,GTTGGGCA,-0.109
17,CTTGCCAC,-0.0129
18,AGTGGGCC,-0.232
19,GTGTAAAA,0.0817
20,CTCCTATC,-0.113
21,ATGCGGGA,-0.043
22,ATTTTAAA,0.174
23,AAGTAGGT,-0.0455
24,CGGATTGC,-0.0632
25,AGCGCAAC,0.0563

row,Sequence,PBM E-score
1,CACTTCAC,-0.0697
2,ATGTTCTG,0.0273
3,CCATTCCG,-0.234
4,TCAAACAA,0.0999
5,CTTTGAAC,-0.146
6,AAGTCAAG,-0.118
7,GCATTAGC,-0.012
8,CGGTCGAA,-0.179
9,ATTCTCCC,-0.212
10,GGACCTCC,-0.257
11,CAGTCTGA,-0.011
12,ATCGCCTA,-0.0927
13,GGGTACCA,-0.238
14,ACAGAGTA,0.0245
15,AATAAGGC,0.154
16,GAGAAATA,0.144
17,ATCCAGAA,0.142
18,ATTAAGAA,0.163
19,AGACAACG,0.0408
20,CGGATGAG,-0.107
21,ACGGTAGA,-0.0475
22,AATTATAC,0.283
23,AAAAGAGA,0.0471
24,CCTACACA,-0.0474
25,ACCCATCG,-0.0698

row,Sequence,PBM E-score
1,ATGAGCAG,-0.0555
2,ACTTTGCG,0.172
3,ACCATCCG,-0.0749
4,TCAGCTGA,0.245
5,ATGCCGGG,-0.255
6,AACTTTGC,0.0103
7,CGAGTTTA,-0.0226
8,GTTGCTTA,0.0853
9,AACATCCG,-0.0298
10,GCGTGTTA,0.114
11,AAACCGAA,-0.0959
12,CCAAATTA,0.201
13,CCCTAACG,-0.0383
14,CCACTTTA,0.0473
15,CTGAGGTA,-0.0742
16,CACTAAGG,-0.178
17,ACACATAT,0.187
18,CAATGACC,0.0293
19,GCGTGATA,0.145
20,AATAGCCG,0.0148
21,AAAGTGCC,-0.219
22,GCTATTGA,0.0908

# — the supplement of paper PMC3334620
